Results from the supplement of paper PMC10600219.
Where a name gives a salt, the structure may show the parent alone. ± gives the standard deviation of the averaged measurements. In all, about 2,800 compounds were measured (“cell viability relative to vehicle”: median about 1.1, lowest 2% from about 0.19 on). The list shows a part of the results.

These compounds were tested on NCI-H2228 parental (assay: cell viability relative to vehicle (fraction of vehicle); NCI-H2228 is an ALK-positive lung cancer line and DTP means drug-tolerant persister; higher = less growth inhibition). Conditions: 100 nM; treatment time 6 days.
Method in brief: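 Drug-tolerant persister NCI-H2228 cells, produced by 13 days in 1000 nM of a targeted drug, and their parental counterparts were seeded into 384-well plates and, the following day, given the 3114-agent TargetMol anti-cancer compound library at 100 nM or DMSO vehicle. After 6 days, the CellTiter-Glo 3D Cell Viability Assay was used to read ATP. Each entry reports viability compared with vehicle-treated cells.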
In the case of C[C@]12CCC(=O)C(O)=C1CC[C@@H]1[C@@H]2CC[C@]2(C)C(=O)CC[C@@H]12 [Formestane], the cell viability is reported as 0.959.
CN1[C@@H]2CC[C@H]1C[C@@H](OC(=O)C(CO)c1ccccc1)C2 (some centres not stated) [Atropine] gave a cell viability of 1.18.
With CCOc1ccccc1-n1c(C(C)N2CCN(C(=O)COc3ccc(Cl)cc3)CC2)nc2ccccc2c1=O (configuration not stated) [Erastin] the cell viability was 1.09.
With CCC1=C[C@H]2CN3CCc4c([nH]c5ccccc45)[C@](C(=O)OC)(C2)[C@H]13 [Catharanthine] the cell viability was 1.06.
Work on CNCC(O)c1ccc(O)cc1 (configuration not stated) [Synephrine] yielded a cell viability of 1.14.
With CNCC(O)c1ccc(O)cc1 (configuration not stated) [Synephrine HCl] the cell viability was 0.912.
Compound Cc1sc2c(c1C)C(c1ccc(Cl)cc1)=N[C@@H](CC(=O)Nc1ccc(O)cc1)c1nnc(C)n1-2 [Birabresib] has a cell viability of 0.922.
COc1ccc2[nH]cc(C3=CCNCC3)c2c1 showed a cell viability of 1.1.
With CN(C)C(=O)Oc1cccc([N+](C)(C)C)c1 [Neostigmine bromide] the cell viability was 1.06.
For CN(C)C(=O)Oc1cccc([N+](C)(C)C)c1 [Hodostin], the cell viability was 0.965.
In the case of CN1[C@H]2C[C@H](OC(=O)[C@H](CO)c3ccccc3)C[C@@H]1[C@@H](O)C2 [Anisodamine], the cell viability is reported as 1.1.
Work on CCN(CC)CCOC(=O)C(O)(c1ccccc1)c1ccccc1 [Benactyzine hydrochloride] yielded a cell viability of 1.1.
CNC(=O)Oc1ccc2c(c1)[C@]1(C)CCN(C)[C@@H]1N2C [Physostigmine Salicylate] showed a cell viability of 1.09.
Compound Nc1ncnc2c1ccn2[C@@H]1O[C@H](CO)[C@@H](O)[C@H]1O [Tubercidin] has a cell viability of 0.219.
Compound COc1ccc(C(CN(C)C)C2(O)CCCCC2)cc1 (configuration not stated) [Venlafaxine hydrochloride] has a cell viability of 1.14.
For Cc1cccc(C)c1NC(=O)CN1CCCC1=O [Nefiracetam], the cell viability was 1.05.
CCCC[N+]1(C)[C@@H]2C[C@@H](OC(=O)[C@H](CO)c3ccccc3)C[C@H]1[C@@H]1O[C@@H]12 (some centres not stated) [Scopolamine butylbromide] was tested, and the cell viability was 1.07.
Compound S=C=NCc1ccccc1 [Benzyl isothiocyanate] has a cell viability of 1.13.
Compound Cn1cc(C2=C(c3cn(C4CCN(Cc5ccccn5)CC4)c4ccccc34)C(=O)NC2=O)c2ccccc21 [Enzastaurin] has a cell viability of 1.13.
NC(=O)c1cc(N2CC2)c([N+](=O)[O-])cc1[N+](=O)[O-] [Tretazicar] showed a cell viability of 0.88.
Compound C=CCN1CC[C@]23c4c5ccc(O)c4O[C@H]2C(=O)CC[C@@]3(O)[C@H]1C5 [Naloxone hydrochloride] has a cell viability of 0.947.
Work on C[C@@H]1CC[C@@]2(OC1)O[C@H]1C[C@H]3[C@@H]4CC=C5C[C@@H](O[C@@H]6O[C@H](CO)[C@@H](O[C@@H]7O[C@@H](C)[C@H](O)[C@@H](O)[C@H]7O)[C@H](O)[C@H]6O[C@@H]6O[C@@H](C)[C@H](O)[C@@H](O)[C@H]6O)CC[C@]5(C)[C@H]4CC[C@]3(C)[C@H]1[C@@H]2C [Dioscin] yielded a cell viability of 1.09.
For CC1(C)C(C(=O)Nc2ccc(S(=O)(=O)c3ccc(NC(=O)C4C(C)(C)C4(C)C)cc3)cc2)C1(C)C, the cell viability was 0.839.
C[C@]12CC[C@@H]3c4ccc(OC(=O)N(CCCl)CCCl)cc4CC[C@H]3[C@@H]1CC[C@@H]2OP(=O)(O)O [Estramustine phosphate sodium] showed a cell viability of 0.999.
Work on COc1cc2cc(c1Cl)N(C)C(=O)C[C@H](OC(=O)C(C)C)[C@]1(C)O[C@@H]1[C@H](C)[C@@H]1C[C@@](O)(NC(=O)O1)[C@H](OC)/C=C/C=C(\C)C2 [Ansamitocin P-3] yielded a cell viability of 0.233.
COC(=O)[C@@H](N)CCCNC(=N)N[N+](=O)[O-] [L-NAME hydrochloride] gave a cell viability of 1.11.
Work on C[N+]1([O-])[C@@H]2CC(OC(=O)[C@H](CO)c3ccccc3)C[C@H]1[C@@H]1O[C@@H]12 (some centres not stated) [Scopolamine N-oxide HBr] yielded a cell viability of 1.19.
In the case of CN1Cc2c(ccc3c2OCO3)[C@@H]2[C@H]1c1cc3c(cc1C[C@@H]2O)OCO3 [Chelidonine], the cell viability is reported as 1.14.
In the case of CC(=O)O[C@H]1C[C@@H]2CC[C@@H]3[C@H](CC[C@@]4(C)[C@H]3C[C@H]([N+]3(C)CCCCC3)[C@@H]4OC(C)=O)[C@@]2(C)C[C@@H]1[N+]1(C)CCCCC1 [Pancuronium bromide], the cell viability is reported as 1.03.
Compound Cc1ccc(/N=C/N(C)/C=N/c2ccc(C)cc2C)c(C)c1 [Amitraz] has a cell viability of 1.12.
O=c1ccc2cc(O[C@@H]3O[C@H](CO)[C@@H](O)[C@H](O)[C@H]3O)c(O)cc2o1 [Esculin] gave a cell viability of 0.909.
CC(NC(C)(C)C)C(=O)c1cccc(Cl)c1 (configuration not stated) [Bupropion hydrochloride] showed a cell viability of 0.997.
For CC(C)=CCC[C@](C)(O)[C@H]1CC[C@]2(C)[C@@H]1[C@H](O)C[C@@H]1[C@@]3(C)CC[C@H](O[C@@H]4O[C@H](CO)[C@@H](O)[C@H](O)[C@H]4O)C(C)(C)[C@@H]3CC[C@]12C [Ginsenoside Rh2], the cell viability was 1.09 ± 0.14.
In the case of NCC(CC(=O)O)c1ccc(Cl)cc1 (configuration not stated) [Baclofen], the cell viability is reported as 1.01.
For CC(=O)O[C@H]1CC[C@H]2[C@@H]3CCC4=CC(=O)CCC4=C3C=C[C@]12C [Trenbolone acetate], the cell viability was 1.21.
With CC(C)[C@]12O[C@H]1[C@@H]1O[C@]13[C@]1(O[C@H]1C[C@H]1C4=C(CC[C@@]13C)C(=O)OC4)[C@@H]2O [Triptolide] the cell viability was 0.121.
NC[C@H](CC(=O)O)c1ccc(Cl)cc1 [(R)-baclofen] was tested, and the cell viability was 1.19.
CC(C)(C)c1cc(C=C(C#N)C#N)cc(Br)c1O gave a cell viability of 1.21.
CC1=C2C(=O)[C@H]3[C@@H](CC=C4C[C@@H](O)CC[C@@]43C)[C@@H]2CC[C@]12O[C@@H]1C[C@H](C)CN[C@H]1[C@H]2C [Jervine] showed a cell viability of 1.09.
Compound O=C1CC[C@@]2(O)[C@H]3Cc4ccc(O)c5c4[C@@]2(CCN3CC2CC2)[C@H]1O5 [Naltrexone hydrochloride] has a cell viability of 0.995.
In the case of COc1ccc2c(c1O)-c1c(OC)c(OC)cc3c1[C@H](C2)N(C)CC3 [(+)-Isocorydine hydrochloride], the cell viability is reported as 1.02.
Work on Cn1c(CCCC(=O)O)nc2cc(N(CCCl)CCCl)ccc21 [Bendamustine hydrochloride] yielded a cell viability of 1.15.
